These are yes or no findings as the source states them, for the method shown. For part of these data: In cells and extracts the contact can be indirect. Some entries that bind do so weakly or less than the wild type. Tags and fused reporters may be left off the sequences shown. One block for each binder: values may come before it.
How the values were obtained:
[1] = biological target: T1, SUPPRESSOR OF MAX2-LIKE 6 fused to the GAL4 DNA binding domain (Arabidopsis thaliana) (UniProt Q9LML2); assay: two-hybrid; bait and prey co-transformed into Y2H Gold; spotted on DDO (SD/-Leu/-Trp) or QDO (SD/-Ade/-His/-Leu/-Trp) with or without X-alpha-Gal/AbA; 30 °C, 3 days
T1 sequence: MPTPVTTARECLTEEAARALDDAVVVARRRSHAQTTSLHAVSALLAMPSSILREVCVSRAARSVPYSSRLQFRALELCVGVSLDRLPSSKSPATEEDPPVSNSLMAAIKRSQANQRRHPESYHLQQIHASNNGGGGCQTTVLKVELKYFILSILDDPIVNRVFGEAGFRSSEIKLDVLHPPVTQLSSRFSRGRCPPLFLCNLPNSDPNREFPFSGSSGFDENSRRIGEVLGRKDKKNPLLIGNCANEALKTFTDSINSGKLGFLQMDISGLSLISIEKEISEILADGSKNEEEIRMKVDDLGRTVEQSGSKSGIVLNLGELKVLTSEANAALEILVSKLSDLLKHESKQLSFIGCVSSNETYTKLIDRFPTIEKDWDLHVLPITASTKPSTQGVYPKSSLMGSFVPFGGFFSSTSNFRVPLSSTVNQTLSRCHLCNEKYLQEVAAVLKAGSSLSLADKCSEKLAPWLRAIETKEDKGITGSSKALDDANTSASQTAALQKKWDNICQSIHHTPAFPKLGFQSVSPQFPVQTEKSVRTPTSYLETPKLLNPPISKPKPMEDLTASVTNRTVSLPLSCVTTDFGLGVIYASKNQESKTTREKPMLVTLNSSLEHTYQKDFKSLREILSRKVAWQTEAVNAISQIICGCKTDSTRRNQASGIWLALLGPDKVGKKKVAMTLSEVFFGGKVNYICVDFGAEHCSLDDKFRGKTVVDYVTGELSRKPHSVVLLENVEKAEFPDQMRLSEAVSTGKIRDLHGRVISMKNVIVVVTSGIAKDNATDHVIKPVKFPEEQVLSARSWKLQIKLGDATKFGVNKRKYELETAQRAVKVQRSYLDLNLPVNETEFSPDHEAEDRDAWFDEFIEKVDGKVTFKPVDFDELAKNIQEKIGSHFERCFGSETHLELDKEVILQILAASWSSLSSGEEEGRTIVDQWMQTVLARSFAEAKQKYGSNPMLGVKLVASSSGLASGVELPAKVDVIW

[2] = biological target: T2, SUPPRESSOR OF MAX2-LIKE 7 fused to the GAL4 DNA binding domain (Arabidopsis thaliana) (UniProt O80875); assay: as above
T2 sequence: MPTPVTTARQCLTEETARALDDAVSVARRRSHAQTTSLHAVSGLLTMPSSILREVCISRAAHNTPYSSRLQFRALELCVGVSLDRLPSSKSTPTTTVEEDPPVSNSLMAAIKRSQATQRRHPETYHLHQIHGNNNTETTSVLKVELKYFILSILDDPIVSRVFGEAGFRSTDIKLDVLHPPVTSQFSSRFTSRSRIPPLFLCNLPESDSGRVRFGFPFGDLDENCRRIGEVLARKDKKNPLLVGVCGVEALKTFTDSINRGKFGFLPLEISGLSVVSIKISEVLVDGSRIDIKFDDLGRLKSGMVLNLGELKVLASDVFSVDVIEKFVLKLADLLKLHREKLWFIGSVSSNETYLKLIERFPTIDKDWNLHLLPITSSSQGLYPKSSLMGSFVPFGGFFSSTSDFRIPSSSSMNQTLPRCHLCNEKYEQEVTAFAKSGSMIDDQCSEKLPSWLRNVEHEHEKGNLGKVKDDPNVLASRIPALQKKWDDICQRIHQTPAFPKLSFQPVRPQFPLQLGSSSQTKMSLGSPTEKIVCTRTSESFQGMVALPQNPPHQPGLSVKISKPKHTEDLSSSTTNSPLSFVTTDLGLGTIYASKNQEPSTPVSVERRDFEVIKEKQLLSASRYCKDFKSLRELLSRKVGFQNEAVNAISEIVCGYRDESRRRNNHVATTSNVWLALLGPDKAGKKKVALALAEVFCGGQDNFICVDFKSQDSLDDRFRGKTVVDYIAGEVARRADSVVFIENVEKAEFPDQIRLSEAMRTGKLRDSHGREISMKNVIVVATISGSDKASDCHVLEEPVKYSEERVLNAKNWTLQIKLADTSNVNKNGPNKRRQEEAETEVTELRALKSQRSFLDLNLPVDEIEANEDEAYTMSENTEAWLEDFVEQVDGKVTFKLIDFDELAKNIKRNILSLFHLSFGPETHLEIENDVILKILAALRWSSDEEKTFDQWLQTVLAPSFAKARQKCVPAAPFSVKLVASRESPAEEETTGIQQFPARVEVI

[3] = biological target: T3, SUPPRESSOR OF MAX2-LIKE 8 fused to the GAL4 DNA binding domain (Arabidopsis thaliana) (UniProt F4IGZ2); assay: as above
T3 sequence: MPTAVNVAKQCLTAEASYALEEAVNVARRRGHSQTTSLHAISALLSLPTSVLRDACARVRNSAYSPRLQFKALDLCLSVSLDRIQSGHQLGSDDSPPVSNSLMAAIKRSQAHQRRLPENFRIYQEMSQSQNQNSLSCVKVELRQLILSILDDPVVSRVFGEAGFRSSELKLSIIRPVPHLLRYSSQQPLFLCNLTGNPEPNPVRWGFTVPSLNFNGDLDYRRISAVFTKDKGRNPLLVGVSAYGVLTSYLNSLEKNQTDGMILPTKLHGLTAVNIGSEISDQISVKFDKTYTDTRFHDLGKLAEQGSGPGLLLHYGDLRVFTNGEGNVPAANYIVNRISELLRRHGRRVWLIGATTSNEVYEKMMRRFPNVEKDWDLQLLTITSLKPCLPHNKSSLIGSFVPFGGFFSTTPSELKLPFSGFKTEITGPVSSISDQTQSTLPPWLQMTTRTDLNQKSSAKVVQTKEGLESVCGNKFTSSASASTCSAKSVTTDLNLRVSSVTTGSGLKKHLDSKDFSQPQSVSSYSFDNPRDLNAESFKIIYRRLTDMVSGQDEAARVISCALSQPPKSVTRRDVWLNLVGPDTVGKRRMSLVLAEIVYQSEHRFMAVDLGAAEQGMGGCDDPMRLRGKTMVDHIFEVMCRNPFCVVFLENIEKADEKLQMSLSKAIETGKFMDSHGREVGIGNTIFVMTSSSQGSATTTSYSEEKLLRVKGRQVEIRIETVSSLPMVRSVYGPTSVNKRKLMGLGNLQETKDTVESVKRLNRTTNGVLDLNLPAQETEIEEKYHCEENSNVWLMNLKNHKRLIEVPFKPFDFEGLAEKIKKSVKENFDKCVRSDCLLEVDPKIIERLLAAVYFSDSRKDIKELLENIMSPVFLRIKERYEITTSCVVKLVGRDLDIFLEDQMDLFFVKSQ

GST-SMXL7 = biological target: T4, GST-SMXL7 (Arabidopsis thaliana, UniProt O80875 1-1002); assay: pull-down; GST-SMXL6,7,8 supernatant bound to GSH beads as bait (PBS, 1% Triton X-100, 1 mM PMSF, 1% BSA, 4 h, 4 °C), washed; extract from cells producing His-DWA1 added as prey for 1 h; ten washes; anti-His and anti-GST immunoblot; the legend says purified proteins were used; only the target purified
T4 sequence: T2 sequence

GST-SMXL6 = biological target: T5, GST-SMXL6 (Arabidopsis thaliana, UniProt Q9LML2 1-979); assay: as above
T5 sequence: T1 sequence

GST-SMXL8 = biological target: T6, GST-SMXL8 (Arabidopsis thaliana, UniProt F4IGZ2 1-910); assay: as above
T6 sequence: T3 sequence

binding [1]: binds | binding [2]: binds | binding [3]: binds
B1: DDB1-BINDING WD-REPEAT DOMAIN (DWD) … TO ABA … 1 (ABA1) (DWA1) fused to the GAL4 activation domain (protein, UniProt Q8L4M1 1-367)
chain: MYGDATNWNEDEYRESILKEREIETRTVFRTAWAPPARISNPDAFVVASSDGTLAFHSLNSLVSQSASFGYSKGQDVMVAEPERVVRAHEGPAYDVKFYGEDEDALLLSCGDDGRVRGWKWREFAESDVSLHLKENHLKPLLELINPQHKGPWGALSPMPEINAMSVDPQSGSVFTAAGDSCAYCWDVESGKIKMTFKGHSDYLHTVVSRSSASQILTGSEDGTARIWDCKTGKCVKVIGSQDKKSRLRVSSMALDGSESWLVCGQGKNLALWNLPASECVQTIPIPAHVQDVMFDEKQILTVGAEPLLRRFDLNGALLSQIHCAPCSVFSISLHPAGVVAVGGYGGIVDVISQFGSHLCTFRSSSL

binding (GST-SMXL7): binds | binding (GST-SMXL6): binds | binding (GST-SMXL8): binds
B2: His-DWA1 (protein, UniProt Q8L4M1 1-367)
chain: B1 chain

binding [1]: no binding | binding [2]: no binding | binding [3]: no binding
B3: DWA2 (yeast two-hybrid fusion) (protein, UniProt Q6NPN9 1-350)
chain: MQGGSSGIGYGLKYQARCISDVKADRDHTSFLTGTLSLKEENEVHLLRLSSGGSELLCEGLFSHPNEIWDLASSPFDQRIFSTVFSTGDSYGAAIWQIPEPYGQSNSSTLECVASLDAHVGKINCVLWCPSGNSDKLISMDEQNLVFWSLDSSKKSAEVLSKESAGMRHSLSGGAWNPHDVNSVAATSESSIQFWDLRTMKKNNSIERAHVRNVDYNLKREHILVSADDESGIHLWDLRKTKFPVQELPGHTHWTWAVRCNPEYEELILSVGTDSAVNLWFASASSEHKTSESPVEASRQRVNPLLNSYTDYEDSVYGLAWSSREPWIFASLSYDGRVVIESVKPFLPRR

binding [1]: no binding | binding [2]: no binding | binding [3]: no binding
B4: ABSCISIC ACID … 5 (yeast two-hybrid fusion) (protein, UniProt Q9SJN0 1-442)
chain: MVTRETKLTSEREVESSMAQARHNGGGGGENHPFTSLGRQSSIYSLTLDEFQHALCENGKNFGSMNMDEFLVSIWNAEENNNNQQQAAAAAGSHSVPANHNGFNNNNNNGGEGGVGVFSGGSRGNEDANNKRGIANESSLPRQGSLTLPAPLCRKTVDEVWSEIHRGGGSGNGGDSNGRSSSSNGQNNAQNGGETAARQPTFGEMTLEDFLVKAGVVREHPTNPKPNPNPNQNQNPSSVIPAAAQQQLYGVFQGTGDPSFPGQAMGVGDPSGYAKRTGGGGYQQAPPVQAGVCYGGGVGFGAGGQQMGMVGPLSPVSSDGLGHGQVDNIGGQYGVDMGGLRGRKRVVDGPVEKVVERRQRRMIKNRESAARSRARKQAYTVELEAELNQLKEENAQLKHALAELERKRKQQYFESLKSRAQPKLPKSNGRLRTLMRNPSCPL

— article PMC10526831, “SUPPRESSOR OF MAX2 LIKE 6, 7, and 8 Interact with DDB1 BINDING WD REPEAT DOMAIN HYPERSENSITIVE TO ABA DEFICIENT 1 to Regulate the Drought Tolerance and Target SUCROSE NONFERMENTING 1 RELATED PROTEIN K”
